Assay results as given in PubChem BioAssay AID360 (National Center for Advancing Translational Sciences (NCATS), 2006).
About 550 (1.1%) of roughly 48,000 compounds were called active. About 4% were inconclusive and are not listed. Cut-off read from the data, not from the text of the source: active = potency below about 15 µM; inconclusive = mostly about 16 µM to 33 µM; inactive = weaker than that. The list shows a part of the results.

What follows are molecules tested against Lysosomal acid glucosylceramidase (Homo sapiens) (UniProt P04062) (assay: Glucocerebrosidase). Conditions: purified enzyme, resorufin glucoside fluorescence (screen aimed at inhibitors), 20 min.
Sequence of UniProt P04062 (P04062 whole entry, looked up): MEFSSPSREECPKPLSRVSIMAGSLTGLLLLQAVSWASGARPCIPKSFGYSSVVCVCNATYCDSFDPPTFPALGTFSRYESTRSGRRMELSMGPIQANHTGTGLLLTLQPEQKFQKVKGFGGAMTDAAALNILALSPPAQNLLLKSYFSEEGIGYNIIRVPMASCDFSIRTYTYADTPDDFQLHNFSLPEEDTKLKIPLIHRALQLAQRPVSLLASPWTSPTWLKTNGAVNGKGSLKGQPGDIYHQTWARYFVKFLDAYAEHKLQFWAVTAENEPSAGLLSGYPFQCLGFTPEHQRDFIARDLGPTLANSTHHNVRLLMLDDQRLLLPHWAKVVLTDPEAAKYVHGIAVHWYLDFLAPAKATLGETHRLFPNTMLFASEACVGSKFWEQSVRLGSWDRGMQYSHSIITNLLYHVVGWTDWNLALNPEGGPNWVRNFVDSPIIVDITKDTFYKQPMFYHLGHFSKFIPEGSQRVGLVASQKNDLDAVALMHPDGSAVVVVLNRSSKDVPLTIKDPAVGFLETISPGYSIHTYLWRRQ
Outline: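 Normal human glucocerebrosidase (0.2 nM final) was assayed with resorufin β-D-glucopyranoside (30 uM final) in 50mM citric acid/KH2PO4, 10mM sodium taurocholate, 0.01% tween-20, pH 5.9. Compounds were titrated; fluorescence (Ex 548, Em 600) read after 20 min at RT.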
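Note: the screen sought inhibitors.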
Potency is the fitted concentration of half-maximal effect.

Potency, inactive:
CCOC(=O)N1CCN(C(=O)c2ccc(-n3c(=S)[nH]c4ccccc4c3=O)cc2)CC1 > 76.9 µM
Cc1cc(C)c(C)c(S(=O)(=O)NCc2ccco2)c1C > 76.9 µM
Cc1cc(N2C(=O)C(=O)/C(=C(/O)c3ccc(F)cc3)C2c2ccc(Cl)cc2)no1 (stereo not drawn) > 76.9 µM
Cc1ccc(NC(=O)N2CCC(C(=O)NCCC3=CCCCC3)CC2)cc1 > 76.9 µM
CCn1c(NCc2ccco2)nc2c1c(=O)n(C)c(=O)n2C > 76.9 µM
CCOC(=O)c1ccc(N2C(=O)C(O)=C(C(C)=O)C2c2ccc(O)c(OC)c2)cc1 (stereo not drawn) > 76.9 µM
CC(C)CCNC(=O)NC(=O)COC(=O)C1=COCCO1 > 76.9 µM
COc1ccc2[nH]c(O)c(NC(C)=O)c2c1 > 76.9 µM
Cc1c(NC(=O)CSc2nncc3ccccc23)c(=O)n(-c2ccccc2)n1C > 76.9 µM
CC(=O)c1ccc(NC(=O)Cn2nc(C)cc2C)cc1 > 76.9 µM
CCCC(=O)c1ccc(N2CCN(C(=O)OCC)CC2)c(F)c1 > 76.9 µM
Cc1ccccc1N1CCN(Cc2cccc(C(=O)O)c2)CC1 > 76.9 µM
c1cncc(CNc2c3c(nc4nnnn24)CCCC3)c1 > 76.9 µM
COc1cc(C(=O)OC(C)CN2CCOCC2)cc(OC)c1OC (stereo not drawn) > 76.9 µM
CCOc1cccc(OCCCCN2CCCCC2)c1 > 76.9 µM
Cc1cccc2sc(NC(=O)CN(C)S(=O)(=O)c3cccs3)nc12 > 76.9 µM
COc1ccc(OC)c(C(c2nnnn2C2CCCC2)N2CCc3ccccc3C2)c1 (stereo not drawn)
COc1ccc(S(=O)(=O)N2CCCCC2)cc1Br > 76.9 µM
Cc1nc2ccc(NC(=O)Cc3cccs3)cc2s1 > 76.9 µM
O=C(NCC1CCCO1)c1ccc2c(=O)n(CCc3ccccc3)c(=O)[nH]c2c1 (stereo not drawn) > 76.9 µM
CCCS(=O)(=O)Nc1c(C(=O)O)[nH]c2ccccc12 > 76.9 µM
CCCN(C(=O)Cc1nc(N)n[nH]1)C1(C(=O)Nc2c(C)cccc2C)CCCCC1 > 76.9 µM
Cc1nc(SCC(=O)N2CCN(C(=O)c3ccco3)CC2)c2c(C)c(C)sc2n1 > 76.9 µM
C=CCn1c(Cc2nc3ccc(Cl)cc3[nH]2)n[nH]c1=S > 76.9 µM
O=C(NCc1ccccc1)C1CCN(S(=O)(=O)N2CCOCC2)CC1 > 76.9 µM
COCCNC(=O)c1ccc2c(c1)NC(=O)CS2 > 76.9 µM
COc1ccc(-c2nnn(CC(=O)N(C3CCCCC3)C(C)C(=O)NC3CCCC3)n2)cc1OC (stereo not drawn) > 76.9 µM
COCCn1c(SCc2nc3sc(C(=O)OC)c(C)c3c(=O)[nH]2)nc2ccccc21 > 76.9 µM
CCOC(=O)c1cnc2nc(NCc3ccc(OC)c(OC)c3)[nH]n2c1=O > 76.9 µM
CCOCCc1nnc(NC(=O)Cc2ccccc2)s1 > 76.9 µM
Cc1cc(C(=O)COC(=O)Cn2cnc3c2c(=O)n(C)c(=O)n3C)c(C)n1C > 76.9 µM
CSCC[C@H](NC(=O)C1CCN(S(=O)(=O)c2ccc(C)cc2)CC1)C(=O)NCc1ccco1 > 76.9 µM
Cc1ccc2[nH]c(-c3cccc(N)c3)cc2c1 > 15.4 µM
CN(C(=O)c1ccncc1)c1nnc(-c2cccnc2)s1 > 76.9 µM
CC(=O)Nc1nc2ccccc2n1Cc1ccccc1C > 76.9 µM
COc1ccc(NC(=O)C2CCN(Cc3cnn(-c4ccccc4)c3-n3cccc3)CC2)cc1OC > 76.9 µM
COC(=O)C1CCN(C(=O)COC(=O)Cc2c[nH]c3ccccc23)CC1 > 76.9 µM
CCOC(=O)Cc1csc(/C(=N/O)C(N)=O)n1 > 76.9 µM
CCOC(=O)c1[nH]c2ccc(F)cc2c1NC(=O)CN1CCc2cc(OC)c(OC)cc2C1 > 76.9 µM
Cc1cc(C(C)(C)C)cc(C)c1COC(=O)C1CCC(=O)N1 (stereo not drawn) > 76.9 µM
CCCCCn1c(=O)c(-c2nc3ccccc3c(=O)[nH]2)c(O)c2ccccc21 > 76.9 µM
COc1ccc(CNC2CCCCC2)cc1 > 76.9 µM
O=C(NC1CCCCC1)/C(=N\O)c1ccccn1 > 76.9 µM
O=C(CSc1nnc(Cn2nnc3ccccc32)o1)N(Cc1ccc(F)cc1)c1ccccc1
COc1cccc(NC(=O)CNC(=O)c2ccc(F)cc2)c1 > 76.9 µM
CCC(=O)/C=C1\Sc2ccc(OC)cc2N1CCO > 76.9 µM
CCOC(=O)c1sc(C)c2c1NC(C)(c1cccs1)NC2=O (stereo not drawn) > 76.9 µM
CC1CCCN(S(=O)(=O)c2ccc(C(=O)Nc3nnc(-c4ccccc4Cl)o3)cc2)C1 (stereo not drawn) > 76.9 µM
CN1C(=O)CSc2ccc(NC(=O)N3CCOCC3)cc21 > 76.9 µM
CCCCOc1ccc(C(=O)NCc2ccccn2)cc1 > 76.9 µM
CN(C)C(=O)Cn1c(=O)n(C)c2ccccc21 > 76.9 µM
COc1cc(NC(=O)c2ccccc2)c(OC)cc1NC(C)=O > 76.9 µM
Cc1cc(C)nc(NC2=NCCN2C(=O)NC2CCCCC2)n1 > 76.9 µM
CCn1c(SCC(=O)Nc2c(C)n(C)n(-c3ccccc3)c2=O)nnc1-c1cccc(C)c1 > 76.9 µM
C=CCn1c(Oc2cc(C)ccc2C)nc2c1c(=O)n(C)c(=O)n2C > 76.9 µM
Cc1cc(C)c2c(n1)nn1c(C3CC3)cc(C(F)(F)F)nc21 > 76.9 µM
Cn1cc(CC(=O)Nc2cccc(C#N)c2)c2ccccc21 > 76.9 µM
CCS(=O)(=O)CCSc1nc2ccccc2o1 > 76.9 µM
